# Hit rate of the full screen: of about 16,000 compounds, about 120 (0.75%) were called active. Inconclusive results (about 4%) are left out. Calls come from the whole dose curve; as a rule, active = well fitted inhibition curve with a large enough effect; inconclusive = small, poorly fitted or top-dose-only effect; inactive = no such curve, though single readings can be large or run the other way. This is one part of the list.
# Biological target: Rap guanine nucleotide exchange factor 3 (Homo sapiens) (UniProt O95398)
# Assay: Validation qHTS for antagonist of cAMP-regulated guanine nucleotide exchange factor 3 (EPAC1);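 note: plate controls were DMSO for no effect and ATA control for full effect; nearly all actives have a fitted effect of over 75% in size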
# Conditions: EPAC1 Rap1B-BODIPY-GDP exchange, fluorescence; series mostly up to 150 µM; activity change, negative = inhibition: at the top concentration
# How it was run: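 Nucleotide exchange followed as fluorescence loss when BODIPY-GDP leaves Rap1B (480 nm excitation, 540 nm emission), read at 5 min intervals over 30 min. Reaction: 100 nM EPAC1, 250 nM RAP1B-BODIPY-GDP, 50 uM GDP; ATA and DMSO define normalization.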
# Sequence of UniProt O95398 (O95398 whole entry, looked up): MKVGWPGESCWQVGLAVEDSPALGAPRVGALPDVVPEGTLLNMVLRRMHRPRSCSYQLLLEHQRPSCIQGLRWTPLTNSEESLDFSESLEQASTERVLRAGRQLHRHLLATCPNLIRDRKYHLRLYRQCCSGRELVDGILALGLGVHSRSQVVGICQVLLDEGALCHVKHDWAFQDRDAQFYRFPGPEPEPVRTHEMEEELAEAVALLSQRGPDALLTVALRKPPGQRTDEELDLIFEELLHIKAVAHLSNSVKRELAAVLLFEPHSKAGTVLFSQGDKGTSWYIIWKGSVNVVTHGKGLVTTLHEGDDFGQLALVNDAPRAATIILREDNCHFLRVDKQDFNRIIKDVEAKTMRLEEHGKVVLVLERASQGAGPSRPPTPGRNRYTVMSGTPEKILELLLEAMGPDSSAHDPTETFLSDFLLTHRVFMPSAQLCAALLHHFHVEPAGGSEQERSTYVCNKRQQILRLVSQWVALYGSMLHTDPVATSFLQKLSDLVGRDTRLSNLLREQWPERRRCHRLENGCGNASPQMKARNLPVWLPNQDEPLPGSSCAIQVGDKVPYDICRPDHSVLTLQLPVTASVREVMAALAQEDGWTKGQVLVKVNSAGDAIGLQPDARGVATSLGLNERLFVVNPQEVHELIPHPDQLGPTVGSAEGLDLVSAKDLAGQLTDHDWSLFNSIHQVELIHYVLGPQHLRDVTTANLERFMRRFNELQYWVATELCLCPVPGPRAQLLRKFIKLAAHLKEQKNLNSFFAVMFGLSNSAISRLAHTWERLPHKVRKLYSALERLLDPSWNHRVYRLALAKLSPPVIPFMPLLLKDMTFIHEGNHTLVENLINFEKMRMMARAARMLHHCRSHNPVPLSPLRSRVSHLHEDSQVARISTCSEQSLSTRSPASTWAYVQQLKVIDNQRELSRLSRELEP
row,SMILES,"activity change, negative = inhibition"
1,CCC(C)(CN(C)C)OC(=O)c1ccccc1 (stereo not given),inactive: 15.7% [at 75.8 µM]
2,CC(=O)OC1CC[C@@]2(C)C(CC[C@@]3(C)C2CC=C2C4CC(C)(C)CC[C@]4(C(=O)O)CC[C@@]23C)C1(C)C (stereo not given in full),inactive: 14.1%
3,OC(c1ccc2c(c1)CN(Cc1cccc3nccnc13)CCO2)C1CCCCC1 (stereo not given),inactive: -0.294%
4,CCCc1nc(C)c2c(=O)[nH]c(-c3cc(S(=O)(=O)N4CCN(CC)CC4)ccc3OCC)nn12,inactive: 17.5%
5,N#Cc1ccccc1-c1ccc2ncnc(NC3CC3)c2c1,inactive: 5.12%
6,CC(Oc1ccccc1)C(=O)N[C@@H]1C(=O)N2[C@@H]1SC(C)(C)[C@@H]2C(=O)OCc1ccccc1 (stereo not given in full),inactive: -1.34%
7,C[N+]1(C)[C@@H]2CC(OC(=O)[C@H](CO)c3ccccc3)C[C@H]1[C@H]1O[C@@H]12 (stereo not given in full),inactive: -11.4%
8,COc1ccc(NC(=O)N2CCCC3(CCN(C(=O)c4c(C)noc4C)CC3)C2)cc1,inactive: 17.5%
9,COc1cc(CN2CCc3nnc(C(NS(C)(=O)=O)C(C)C)n3CC2)ccc1F (stereo not given),inactive: 4.91%
10,COc1ccc(OC)c(CN2CCOc3ccc(C(O)c4cccnc4)cc3C2)c1 (stereo not given),inactive: 2.99%
11,CNC1(C)C2CCC(C2)C1(C)C (stereo not given),inactive
12,Cc1nc2cncnc2n(Cc2ccccc2Cl)c1=O,inactive: 10.2%
13,NC(=O)C1(N2CCCCC2)CCN(CCCC(=O)c2ccc(F)cc2)CC1,inactive: 13.6%
14,COCCn1c(=O)c(-c2cn(C)c3ccccc23)nc2cnc(OCc3ccccc3)nc21,inactive: 9.75%
15,O=C(c1ccco1)N1CCC2(CC1)CCN(C(c1ccccc1)c1ccccc1)CC2,inactive: -3.06%
16,S=c1nc[nH]c2nc[nH]c12,inactive
17,CN(Cc1ccco1)c1nc(-c2cccc(C#N)c2)nc2ccccc12,inactive: 13.2%
18,CS(=O)c1ccc(-c2nc(-c3ccc(F)cc3)c(-c3ccncc3)[nH]2)cc1 (stereo not given),inactive
19,CC(C)CN1CC[C@@]2(CCCN(C(=O)c3csnn3)C2)C1,inactive: 23%
20,COCCn1c(=O)c(-c2ccc(F)cc2)nc2cncnc21,inactive: 13.6%
21,CC(C)CN1CCC(=O)N(CCO)CC1,inactive: -21.2%
22,COc1cccc(Cn2c(=O)c(C)nc3cnc(N4CCNCC4)nc32)c1,inactive: 24.7%
23,C=C1CCC2[C@](C)(CO)[C@H](O)CC[C@@]2(C)[C@@H]1C/C=C1/C(=O)OC[C@H]1O (stereo not given in full),inactive: 3.35%
24,COC(=O)C(O)C1C(C)(C)C(OC(C)=O)C2CC3=C4CC(=O)OC(c5ccoc5)[C@]4(C)CCC3[C@@]1(C)C2=O (stereo not given in full),inactive: 5.22%
25,CCCCCC1CCNCC1,inactive: 17.2%
26,COc1ccc2[nH]cc(CCNc3ccnc(-c4ccccc4Cl)n3)c2c1,inactive: -28.5%
27,COCCn1c(=O)c(-c2ccc(F)cc2)nc2cnc(OCc3ccccc3)nc21,inactive: 4.05%

row,SMILES,"activity change, negative = inhibition"
1,COc1ccccc1-c1cncnc1Nc1ccccc1,inactive: 7.54%
2,CNc1ccnc(-c2ccccc2C)n1,inactive: 9.48%
3,O=S1(=O)CCOC[C@H](c2ccccc2)N1Cc1ccccc1F,inactive: -18%
4,Cc1nn(-c2ccccc2)c(C)c1CC(=O)NCC1Cc2cc(-c3cncnc3)ccc2O1 (stereo not given),inactive: 22%
5,COc1ccc(-n2c(CNC(=O)c3ccc(OC)cc3OC)nnc2SC)cc1,inactive: -5.6%
6,N#Cc1cccc(NC(=O)N2CC3(CCN(C(=O)c4cc(C(F)(F)F)cc(C(F)(F)F)c4)CC3)C2)c1,inactive: -12.9%
7,Cc1c(C(=O)NCCc2ccncc2)cnn1-c1nccc(-c2ccccc2C(F)(F)F)n1,inactive: 5.47%
8,Cc1oc(-c2ccccc2NC(=O)C2CCC2)nc1CNC(=O)c1ccccn1,inactive: 4.5%
9,CO/N=C1\CN(c2nc3c(cc2F)c(=O)c(C(=O)O)cn3C2CC2)CC1CN (stereo not given),inactive: 21.3%
10,Clc1ccccc1C(c1ccccc1)(c1ccccc1)n1ccnc1,inactive
11,NC(=O)NO,inactive
12,O=S(=O)(c1ccccc1)N1CCC2(CC1)CN(C(c1ccccc1)c1ccccc1)C2,inactive: -6.86%
13,COc1ccc2cc(CNCc3ccccc3Cl)c(N3CCCC(CO)C3)nc2c1 (stereo not given),inactive: 12.3%
14,COc1ccc(CN2CCOc3ccc(C(O)c4cccnc4)cc3C2)c(OC)c1OC (stereo not given),inactive: 9.63%
15,Cn1c(=O)c(-c2ccc(F)cc2)nc2cnc(Oc3ccccc3)nc21,inactive: 8.74%
16,O=C(Nc1ccccc1)N1CC2(CCN(C(=O)c3ccco3)CC2)C1,inactive: 17.2%
17,COC1C(O)C(CO)OC1n1c(Br)nc2c(=O)[nH]c(N)nc21 (stereo not given),inactive: -17.2%
18,CCCCCCCCCCCCCCCCCC[N+](C)(C)CCC[Si](OC)(OC)OC,inactive: 29.3%
19,O=C(NCC1CCC2(CCN(Cc3cccn3-c3ccc(Cl)cn3)CC2)O1)c1ccccc1 (stereo not given),inactive: 6.96%
20,CN1CCC[C@H]1c1cccnc1,inactive
21,O=c1c(-c2cc(F)cc(F)c2)nc2cnc(Oc3ccccc3)nc2n1C[C@H]1CCCO1,inactive: 7.05%
22,COCCn1c(=O)c(-c2ccc(Cl)cc2)nc2cnc(Oc3ccccc3)nc21,inactive: 7.46%
23,COc1ccc(-n2c(=O)c(-c3ccc(Cl)cc3)nc3cnc(N(C)C)nc32)cc1,inactive: 54.6%
24,CCCC(C(=O)OCCN(CC)CC)(c1ccccc1)c1ccccc1,inactive
25,CN(C)c1ncc2nc(-c3cccs3)c(=O)n(CCc3ccccc3)c2n1,inactive: 5.01%
26,CC(=O)CCC(=O)N1CCC(n2c(C3CCCO3)nc3cc(C(F)(F)F)ccc32)CC1 (stereo not given),inactive: 8.38%
27,OC(c1cccnc1)c1ccc2c(c1)CN(Cc1cn(-c3ccccc3)nc1-c1ccccc1)CCO2 (stereo not given),inactive: -13.6%

row,SMILES,"activity change, negative = inhibition"
1,N#C/C(=C\c1cc(Cl)cc(Cl)c1)c1cccnc1,inactive
2,COc1ccccc1N1CCN(C[C@@H](C(=O)NC(C)(C)C)c2ccccc2)CC1,inactive: -11.5%
3,CCOC(=O)c1ccc(OC(=O)CCCCCN=C(N)N)cc1,inactive
4,CCCCCCCCCCCCCCCC(=O)C1=C(O)C(CO)OC1=O (stereo not given),inactive: 11.8% [at 201 µM]
5,C=CC[N@@+]12CC[C@@]34c5ccccc5N5/C=C6/[C@H]7C[C@H]8[C@@]9(CC[N@@+]8(CC=C)C/C7=C/CO)c7ccccc7N(/C=C(/[C@@H](C[C@@H]31)/C(=C\CO)C2)[C@H]54)[C@@H]69,inactive: -5.3% [at 75.8 µM]
6,CC(C)=CCC/C(C)=C/COc1ccc2ccc(=O)oc2c1,inactive: -20.7%
7,CCCSS/C(CCO)=C(\C)N(C=O)Cc1cnc(C)nc1N,inactive: 19%
8,O=C(C1CCOC1)N1CCOc2ccc(CN3CCC(Oc4cccnc4)CC3)cc2C1 (stereo not given),inactive: 7.19%
9,COc1cc(CC(=O)O)ccc1O,inactive
10,O=C(c1cccc(F)c1)N1CCC2(CC1)CCN(c1ccc(-c3ccccc3)cc1)CC2,inactive: 27.5%
11,O=c1[nH]c2cc(Cl)ccc2c(O)c1-c1ccc(Oc2ccccc2)cc1,inactive: 20.5% [at 75.8 µM]
12,COc1c(OC)c2occc2c2oc(=O)ccc12,inactive: 10.9%
13,C=CCN1CCCC1CNC(=O)c1cc(S(N)(=O)=O)cc(OC)c1OC (stereo not given),inactive: 8.39%
14,Cc1nc(NCc2cnn(C)c2C)sc1-c1ccn(CC2COc3ccccc3O2)n1 (stereo not given),inactive: 12.6%
15,Cn1cccc1C(=O)N1CCC[C@@]2(CCN(c3ccccc3)C2)C1,inactive: 23.8%
16,OC1OC[C@@H](O)[C@H](O)[C@@H]1O (stereo not given in full),inactive: 15.9%
17,N#Cc1ccc(CN2CCCC3(CCNCC3)C2)cc1,inactive: 10.9%
18,O=C(NCC1CCC2(CCN(Cc3ccccc3O)CC2)O1)C1CCCO1 (stereo not given),inactive: 11.7%
19,O=C(O)c1cc(O)c(O)c(O)c1,inactive
20,CC(C)=CCc1c(O)cc(C)oc1=O,inactive: 4.52%
21,Nc1ccc(N=Nc2ccccc2)c(N)n1,inactive
22,CCN(CC)C(=O)N1CCN(C)CC1,inactive
23,C/C=C1\C2C=C(C)C[C@@]1(N)c1ccc(=O)[nH]c1C2,inactive: 12.1%
24,O=C1CCN(Cc2ccc([N+](=O)[O-])cc2)CCN1[C@H](CO)c1ccccc1,inactive: 2.48%
25,COc1ccc(-n2c(=O)c(-c3cccs3)nc3cnc(N4CCNCC4)nc32)cc1,inactive: 15.4%
26,COc1ccccc1-c1ccnc(-n2ncc(C(=O)NC(C)(C)CO)c2C2CC2)n1,inactive: 3.03%
27,O=C(c1cnccn1)N1CCC2(CCCN(c3cccc(-c4ccccc4)c3)C2)CC1,inactive: 12.2%

row,SMILES,"activity change, negative = inhibition"
1,CCCCC#Cc1nc(NC)c2ncn([C@@H]3O[C@H](CO)[C@@H](O)[C@H]3O)c2n1,inactive: -0.318% [at 75.8 µM]
2,Cn1c2ccccc2c(=O)c2ccc(F)cc21,inactive: -12.9%
3,C[C@@H](CSc1ccc(Br)cc1)CN1CC[C@H](O)CCC1=O,inactive: 11.7%
4,O=C(O)[C@@H]1C[C@H](CP(=O)(O)O)CCN1,inactive: 8.63%
5,CC1=CC2C(=O)c3cccc(O)c3C(=O)C2C(O)=C1 (stereo not given),inactive: 6.3%
6,O=P(O)(O)C(O)(Cc1cccnc1)P(=O)(O)O,inactive: 21.3%
7,CC1O[C@@H](Oc2c(-c3ccc(O)c(O)c3)oc3cc(O)cc(O)c3c2=O)C(O)C(O)C1O (stereo not given in full),inactive: 11%
8,COc1ccc(Oc2ncc3nc(-c4ccc(F)cc4)c(=O)n(C4CC4)c3n2)cc1,inactive: -0.125%
9,N[C@@H](Cc1ccc(F)cc1)C(=O)O,inactive: -9.15% [at 75.8 µM]
10,O=C(Oc1ccccc1)N1CCC2(CCCN(c3ccccn3)C2)CC1,inactive: 4.01%
11,CCN(CCCc1ccccc1)CCCc1ccccc1,inactive
12,CN(C)Cc1ccccc1-c1nccc(NC2CC2)n1,inactive: 18.5%
13,Cc1c(C)c2c(c(C)c1O)CC[C@@](C)(CCC[C@H](C)CCC[C@H](C)CCCC(C)C)O2,inactive
14,O=C(CCN1CCN2CCCC2C1)N1c2ccccc2Sc2ccc(Cl)cc21 (stereo not given),inactive: 13.6%
15,O=C(O)CCC(=O)C(=O)O (tested in a mixture with another compound),inactive: 16%
16,CCOC(=O)c1c(C)cc(O)c(C)c1O,inactive: 6.88%
17,CC(CCc1ccc(O)cc1)NCC(O)c1ccc(O)cc1 (stereo not given),inactive: 18.6%
18,O=[N+]([O-])c1ccc(Oc2ccc(N=C=S)cc2)cc1,inactive: -23.1%
19,CC[C@]1(O)C[C@@H]2CN(CCc3c([nH]c4ccccc34)[C@@](C(=O)OC)(c3cc4c(cc3OC)N(C)[C@H]3[C@@](O)(C(=O)OC)[C@H](OC(C)=O)[C@]5(CC)C=CCN6CC[C@]43[C@@H]65)C2)C1,inactive
20,CN(C)CCOC(c1ccccc1)c1ccccc1 (tested in a mixture with another compound),inactive: 20.4%
21,C=C(C)C1CC=C(C)CC1 (stereo not given),inactive: 14.7%
22,Cn1cnc2c(NC3CCCC3)ncnc21,inactive: 24.7%
23,CC/C(=C\c1ccccc1)c1cccc2oc3ccccc3c12,inactive: 8.02%
24,CC(C)(C)C(O)/C=C/c1ccc2c(c1)OCO2 (stereo not given),inactive: 31.6%

# Source: PubChem BioAssay AID1645882 (National Center for Advancing Translational Sciences (NCATS), 2021)
